In all, about 310,000 compounds went through this assay and about 2,200 (0.71%) showed an effect of 50% or more. The effect is printed as a negative number. Some of the results follow.
Target: human ether-à-go-go-related gene (hERG) potassium channel (human, UniProt Q12809)
Test: primary screen, population patch clamp on CHO cells stably expressing hERG

Chain of human ether-à-go-go-related gene (hERG) potassium channel (Q12809 whole entry, looked up): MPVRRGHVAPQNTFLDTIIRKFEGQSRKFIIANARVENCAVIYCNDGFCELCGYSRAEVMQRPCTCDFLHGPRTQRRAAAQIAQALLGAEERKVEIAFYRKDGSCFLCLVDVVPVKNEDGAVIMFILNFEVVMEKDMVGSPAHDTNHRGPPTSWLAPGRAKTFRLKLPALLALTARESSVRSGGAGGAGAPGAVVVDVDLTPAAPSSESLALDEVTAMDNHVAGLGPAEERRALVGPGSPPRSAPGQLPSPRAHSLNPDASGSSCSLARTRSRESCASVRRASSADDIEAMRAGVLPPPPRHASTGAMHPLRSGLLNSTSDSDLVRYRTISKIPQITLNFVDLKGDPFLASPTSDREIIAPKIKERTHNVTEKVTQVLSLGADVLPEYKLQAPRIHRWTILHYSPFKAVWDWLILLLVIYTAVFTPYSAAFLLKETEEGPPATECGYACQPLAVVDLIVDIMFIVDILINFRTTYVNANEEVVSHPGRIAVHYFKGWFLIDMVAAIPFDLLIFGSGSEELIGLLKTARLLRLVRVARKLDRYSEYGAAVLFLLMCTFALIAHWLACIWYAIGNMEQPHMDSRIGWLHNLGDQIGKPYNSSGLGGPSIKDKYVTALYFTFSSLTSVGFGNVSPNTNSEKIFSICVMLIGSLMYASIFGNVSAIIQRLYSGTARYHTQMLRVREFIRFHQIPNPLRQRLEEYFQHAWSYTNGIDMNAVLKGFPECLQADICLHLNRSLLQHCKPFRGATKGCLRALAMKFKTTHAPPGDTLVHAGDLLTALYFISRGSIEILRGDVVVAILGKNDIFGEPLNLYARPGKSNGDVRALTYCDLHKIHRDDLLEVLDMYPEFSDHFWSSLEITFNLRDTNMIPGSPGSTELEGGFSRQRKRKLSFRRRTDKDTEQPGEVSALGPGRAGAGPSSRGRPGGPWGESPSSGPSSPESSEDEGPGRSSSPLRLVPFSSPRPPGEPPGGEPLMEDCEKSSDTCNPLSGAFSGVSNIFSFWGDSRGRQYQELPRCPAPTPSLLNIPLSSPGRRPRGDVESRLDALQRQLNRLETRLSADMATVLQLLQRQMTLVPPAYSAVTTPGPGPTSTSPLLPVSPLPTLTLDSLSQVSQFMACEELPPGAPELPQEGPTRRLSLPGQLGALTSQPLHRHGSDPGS

Row | SMILES | hERG current change (%, negative = inhibition) at 1uM [%]
1 | Cc1ccc(Sc2ncccc2C(N)=O)cc1 | 10.5
2 | COc1ccc(CN2CCN(C(=O)c3cc(-c4cccnc4)nc4ccc(Cl)cc34)CC2)c(OC)c1OC.Cl | 9.63
3 | CN(C(=O)Nc1cccc(C(F)(F)F)c1)C1CCCCC1 | 13.8
4 | O=C(NCC1CCCO1)C1CCN(C2CCN(C(=O)Cc3ccsc3)CC2)CC1 (centres unmarked) | 7.14
5 | CCOC(=O)C1CCCN(S(=O)(=O)c2cc(OCC(N)=O)c(C)cc2Cl)C1 (centres unmarked) | 11.7
6 | COc1ccc2c(=O)cc(C(=O)O)oc2c1 | -3.54
7 | COc1ccc(NC(=O)[C@@H](NC(N)=O)C(C)C)cc1Cl | 8.42
8 | O=C(CCc1nc(-c2cccs2)no1)Nc1cnc2ccccc2c1 | 18.7
9 | COc1ccc(C2=C/C(=C\c3ccccc3OC(C)=O)C(=O)O2)cc1 | 18.4
10 | Cc1c(C(=O)N2CC(C)OC(C)C2)sc2nc(-c3ccc(F)cc3)cn12 (centres unmarked) | -2.78
11 | COc1ccc2oc(C(=O)N3CCN(S(=O)(=O)c4cccc([N+](=O)[O-])c4)CC3)c(C)c2c1 | 13.5
12 | Cc1ccc(C)c(OCCC(=O)NCCc2ccc(F)cc2)c1 | 9.65
13 | CCOc1ccc(CC(=O)NNC(=S)NC)cc1 | 10.1
14 | Cc1c(NC(=O)/C(C#N)=C/c2c(Oc3ccccc3)nc3ccccn3c2=O)c(=O)n(-c2ccccc2)n1C | 7.31
15 | CC(NC(=O)CCNS(=O)(=O)c1ccc2c(c1)oc(=O)n2C)c1ccccc1 (centres unmarked) | 14.1
16 | O=C(c1cc(COc2ccc(F)c(F)c2)on1)N1CCOCC1 | 13.4
17 | O=C(Nc1nc(-c2cc3ccccc3o2)cs1)c1ccc(S(=O)(=O)N2CCCC2)cc1 | 23.1
18 | CCC(C)N(C(=O)Cn1nnc2ccccc21)C(C(=O)Nc1ccc(F)cc1)c1cccc(OC)c1 (centres unmarked) | 3.02
19 | COc1ccccc1OCC(=O)N/N=C1/C=C(C)CC1 | -0.906

Row | SMILES | hERG current change (%, negative = inhibition) at 1uM [%]
20 | O=C(NCC(=O)N1CCC(N2CCCCC2)CC1)C1CCCCC1 | 10.4
21 | Cc1c(CC(=O)O)c(=O)oc2cc3occ(-c4ccc(F)cc4)c3cc12 | 18
22 | COc1ccc(-c2nnc(N3CCOCC3)c3ccccc23)cc1 | 11.8
23 | O=C(Nc1ccc2ccccc2n1)c1ccccc1Br | 19.4
24 | CCc1cc2cc(OC)ccc2nc1SCC(=O)Nc1cc(OC)c(OC)cc1C(=O)O | 4.02
25 | CSCC[C@H](NC(=O)OC(C)(C)C)c1nnc(SCc2ccc(F)cc2)o1 | -0.565
26 | CCOc1ncccc1C(=O)Nc1ccc(S(=O)(=O)Nc2nccs2)cc1 | 10.5
27 | Cc1ccc(S(=O)(=O)N2CCN(C(=O)CCN3C(=O)c4ccccc4C3=O)CC2)cc1C | -2.35
28 | COc1ccc([C@H]2CC(=O)C=C(c3ccccc3)C2)cc1 | 12.6
29 | Cc1cc(C(F)(F)F)c2c(C)nn(-c3ccccc3)c2n1 | 11.5
30 | CCCc1cc(=O)oc2cc(C)cc(OC(C)C(=O)NCc3ccccn3)c12 (centres unmarked) | 2.71
31 | COC(=O)c1cccc(N(C(=O)c2ccco2)C(C(=O)NC2CCCC2)c2ccco2)c1 (centres unmarked) | -5.49
32 | Cc1ccc(C(C)(O)CS(=O)(=O)Cc2ccccc2)cc1 (centres unmarked) | 12.3
33 | Cc1ccc(CSCC(=O)Nc2cc(S(=O)(=O)N3CCOCC3)ccc2OC(C)C)cc1 | -4.76
34 | COCc1cc(C)[nH]c(=O)c1C(=O)NC12CC3CC(CC(C3)C1)C2 | 15.4
35 | COc1cc(NC(=O)c2cccnc2SC)cc(OC)c1OC | 14.5
36 | O=C(Nc1ccccc1N1CCCC1)c1ccc(Br)o1 | 6.24
37 | CCCCNC(=O)CC1Nc2ccccc2NC1=O (centres unmarked) | 2.1
38 | CC/C(C)=N/Nc1nc(-c2cc3cccc(OC)c3oc2=O)cs1 | 5.28

Row | SMILES | hERG current change (%, negative = inhibition) at 1uM [%]
39 | CC(C)CCC(C(=O)O)C(C)CC(=O)Nc1ccn(-c2ccccc2)n1 (centres unmarked) | 12
40 | Cc1cc(Oc2ccccc2)nc(NCc2ccccc2)n1 | 6.46
41 | CCCCOc1cccc(C(=O)N(Cc2ccccc2)C2CCS(=O)(=O)C2)c1 (centres unmarked) | 13
42 | COc1ccc(NC(=O)c2cccc(OC(=S)N3CCOCC3)c2)cc1 | 4.26
43 | O=C(CCCCC(=O)NCCCc1ccccc1)NCCCc1ccccc1 | 14
44 | COc1ccccc1-c1ocnc1C(=O)N1CCN(C(=O)C(c2ccccc2)c2ccccc2)CC1 | -15.8
45 | C/C(=N/NC(=O)c1cc(C)[nH]n1)c1ccco1 | 12.4
46 | O=C(CNC(=O)C1CCCCC1)OCc1cc(=O)oc2ccc3ccccc3c12 | 5.88
47 | CCc1c(O)nc(SCC(=O)Nc2ccc(OC)cc2)n(C2CCCCC2)c1=O | 7.24
48 | COc1cccc(OCc2cc(C(=O)N(C)C3CCOCC3)no2)c1 | 1.6
49 | Cc1ccc(OCCn2cc(C=O)c3ccccc32)cc1 | 17.4
50 | COc1ccc(S(=O)(=O)Nc2ccc3c(c2)n(C)c(=O)n3C)cc1C | 6.57
51 | Cc1sc2nc(SCC(=O)NCCO)n(-c3ccccc3)c(=O)c2c1C | 3.19
52 | NC(=O)CC(NC(=O)Cc1cccc2ccccc12)c1ccc(NCCOc2ccccc2)c([N+](=O)[O-])c1 (centres unmarked) | 7.29
53 | O=C(CN(Cc1cccs1)C(=O)CNS(=O)(=O)c1ccc(F)cc1)NCC1CCCO1 (centres unmarked) | 11.9
54 | Cc1cc2n(n1)C(c1ccco1)Nc1ccccc1-2 (centres unmarked) | -1.3
55 | O=C(CNC(=O)c1ccc(Cl)cc1)NCCCn1ccnc1 | 16.9
56 | CCCNC(=O)CN(CCc1ccccc1)S(C)(=O)=O | 8.53

Source: article PMC4336329 (PLoS ONE, 2015)
